# Out of some 43,000 compounds screened, about 200 (0.47%) were called active. Not shown: some 12% with an inconclusive outcome. The call rests on the fitted dose curve; in most records, active means well fitted cell-killing curve with a large enough effect; inconclusive means small, poorly fitted or top-dose-only effect, or effect the other way; inactive means flat fitted curve, though single readings scatter. This is one part of the list.
# Assay: Cell viability qHTS assay in S16 Pmp22-F2sN cells; further: nearly all actives have a fitted effect of over 65% in size
# Details: S16 Pmp22-F2sN Schwann cells viability, CellTiter-Glo, 24 h; series mostly up to 57.5 µM; activity change, negative = cytotoxicity: at the top concentration
# Procedure, shortened: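 S16 Pmp22-F2sN Schwann cells (500-1,000/well) in phenol-red-free DMEM with 10% FBS received 23 nL compound by pin tool for 24 h at 37 °C. Viability was then read as CellTiter-Glo luminescence after 15 min at room temperature.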
# On the % scale 0 is the no-effect control and ±100 the full control effect.
row,Structure (SMILES),"activity change, negative = cytotoxicity"
1,CCOC(=O)c1cc(-c2ccccc2)n(CCC(=O)Nc2ccc(C)cc2Cl)c1C,inactive: 2.25%
2,COc1ccc(OC)c(S(=O)(=O)N2Cc3ccccc3CC2C(=O)Nc2ccc(Cl)cc2)c1 (stereo not drawn),inactive: 5.87%
3,Cc1cc(Cl)ccc1Nc1ncnc2onc(C)c12,inactive: -1.16%
4,Cc1ccc(Cl)cc1N1CCN(C(=O)c2cc(S(=O)(=O)N3CCCCCC3)cn2C)CC1,inactive: -1.53%
5,Fc1ccccc1OCc1nc(-c2ccc(-n3cccc3)cc2)no1,inactive: 13.2%
6,CN(Cc1ccc(F)cc1)S(=O)(=O)c1nnc(NC(=O)c2ccc(F)cc2)s1,inactive: -20.7%
7,O=C(Nc1ccccc1Cl)C1CCN(c2nc3ccccc3[nH]2)CC1,inactive: 8.7%
8,COc1cccc(NC(=O)CSCn2nnc3c(=O)[nH]c(Cc4ccc(F)cc4)nc32)c1,inactive: -21.6%
9,O=C(CN(CCc1ccccc1)S(=O)(=O)c1ccccc1)NCc1ccc(Cl)cc1,inactive: -24.3%
10,COc1ccc(NC(=O)C2CCCN(S(=O)(=O)c3ccc4c(c3)CCCN4C(C)=O)C2)cc1 (stereo not drawn),inactive: -27%
11,COC(=O)c1ccc2c(c1)N(CC(=O)Nc1cccc(C(F)(F)F)c1)C(=O)c1ccccc1S2,inactive: 18.1%
12,O=C(CSc1nc2c([nH]c3ccccc32)c(=O)n1-c1ccccc1F)Nc1ccccc1C(F)(F)F,inactive: -12.5%
13,Cc1ccc(S(=O)(=O)c2nc(-c3cccc(C)c3)oc2N2CCCCC2)cc1,inactive: 0.871%
14,O=S(=O)(Nc1cccc(-c2ccc(N3CCCC3)nn2)c1)c1ccc(F)cc1F,inactive: 24.2%
15,Cc1ccccc1-n1c(=O)c2c3c(sc2n2cnnc12)CCCC3,inactive: 8.21%
16,COc1ccc(CNC(=O)C2CCN(c3nnc(-n4cccc4CNc4ccc(C)cc4)s3)CC2)c(OC)c1,inactive: -18.1%
17,COc1ccc(Cn2ccnc2SCC(=O)Nc2cc(C(F)(F)F)ccc2Cl)cc1,inactive: 2.73%
18,COc1ccc(-c2cn3nc(N4CCCC(C(=O)NCc5ccccc5C)C4)sc3n2)cc1 (stereo not drawn),inactive: -21.5%
19,CCOC(=O)c1ccccc1NC(=O)c1sc2ccccc2c1Cl,inactive: 1.16%
20,CCN(CC)C(=O)Cn1c(=O)cc(C)c2c(C)nn(C)c21,inactive: 14.8%
21,COc1ccc(NC(=O)CSc2c3c(nc4ccccc24)CCC3)c(OC)c1,inactive: 2.86%
22,COc1ccc(N2CCN(C(=O)CN(C)S(=O)(=O)c3cccs3)CC2)cc1,inactive: 16.5%
23,CCn1c(=O)n(-c2ccc(F)c(Cl)c2)c(=O)c2c3c(sc21)CN(C(C)=O)CC3,inactive: 2.82%
24,CCOC(=O)c1nc(N2CCN(c3ccc(F)cc3)CC2)c2c(C)noc2n1,inactive: 1.64%

row,Structure (SMILES),"activity change, negative = cytotoxicity"
1,COc1ccc(-c2csc3nc(-c4ccc(F)cc4)oc(=O)c23)cc1,inactive: 8.7%
2,COc1ccc(NC(=O)CCCc2nnc3n(CCC(C)C)c(=O)c4sccc4n23)c(OC)c1,inactive: 24.9%
3,COCCNC(=O)c1ccc(-n2c(-c3ccccc3)cc3c2CCCCC3)cc1,inactive: 1.19%
4,COc1cccc(N2C(=O)CSC23C(=O)N(Cc2ccccc2)c2ccccc23)c1 (stereo not drawn),inactive: 10.1%
5,Cc1ccc(C)c(CSc2cn(CC(=O)N3CCCCCC3)c3ccccc23)c1,inactive: 18.9%
6,Cc1ccc(S(=O)(=O)c2nc(-c3ccccc3Cl)oc2N2CCCCCC2)cc1,inactive: -24.6%
7,CCc1ccc(NC(=O)C(=O)NCC(c2ccc3c(c2)OCO3)N2CCOCC2)cc1 (stereo not drawn),inactive: -6.79%
8,COc1ccc(C2=NS(=O)(=O)N(C)C(C(=O)NCc3ccccc3)=C2)cc1OC,inactive: -0.396%
9,CN1C(=O)c2ccccc2Sc2ccc(NC(=O)COc3ccccc3)cc21,inactive: -27.4%
10,Cc1ccc(Cl)c(NC(=O)Nc2csc3c2CCCC3)c1,inactive: 1.97%
11,CCc1ccccc1NC(=O)Cn1c(=O)n(CC2CCC(C(=O)NCCc3ccccc3)CC2)c(=O)c2ccccc21 (stereo not drawn),inactive: 29%
12,CCn1cc(C(=O)NCCCN(CC(C)C)CC(C)C)c(=O)c2cc(S(=O)(=O)N(C)C3CCCCC3)ccc21,inactive: 0.318%
13,COc1ccc(NC(=O)CCc2nnc3n(C)c(=O)c4sccc4n23)cc1Cl,inactive: -1.82%
14,COc1cccc(N2C(=O)N(Cc3ccc(C#N)cc3)c3ccccc3S2(=O)=O)c1,inactive: 27.7%
15,CCC(=O)N1CCc2cc(Br)cc(S(=O)(=O)CCC(=O)Nc3ccc(C)c(C)c3)c21,inactive: 4.14%
16,COc1ccc(-c2noc(-c3ccc(NCc4cccnc4)c([N+](=O)[O-])c3)n2)cc1,inactive: 3.06%
17,CCOc1ccc(NC(=O)c2cc(S(=O)(=O)N3CCCCC3)c[nH]2)cc1,inactive: -4.51%
18,COc1ccc(CCNC(=O)Cn2c(=O)n(-c3cc(OC)c(OC)c(OC)c3)c(=O)c3ccccc32)cc1OC,inactive: 1.31%
19,COc1cccc(CNc2nc3c(-c4ccccc4)nnn3c3ccccc23)c1,inactive: 6.32%
20,Cc1ccc2oc(=O)c3cnn(CC(=O)N4CCN(c5cc(Cl)ccc5C)CC4)c3c2c1,inactive: 10.7%
21,COc1cccc(NS(=O)(=O)c2ccc3[nH]cc(C(=O)NCCc4ccccc4)c(=O)c3c2)c1,inactive: 16%
22,CCOc1ccc(CCNCc2c(C(=O)O)n(Cc3ccc(C)cc3)c3cc(OC)ccc23)cc1,inactive: 0.0535%
23,CN(Cc1ccccc1)C(=O)CSc1nc2ccsc2c(=O)n1-c1ccc(F)cc1,inactive: -27%
24,CCOc1cc(C2c3c(oc4ccc(F)cc4c3=O)C(=O)N2Cc2ccco2)ccc1O (stereo not drawn),inactive: -3.48%
